Measured values from article PMC3347801.
Results are given in words; binding and its absence hold for the method and conditions named. Binding seen in cells or lysates may run through a third protein. Some entries that bind do so weakly or less than the wild type.

These substances were tested against HCV envelope glycoprotein E2, wild type (genotype 1a strain H77c) (hepatitis C virus genotype 1a strain H77c) (UniProt P27958) (assay: co-IP; lysates of transfected HEK-293T cells (20 mM Tris/HCl pH 7.4, 150 mM NaCl, 1 mM EDTA, 1 % Triton X-100, 20 mM iodoacetamide) immunoprecipitated with anti-E2 serum R646, 2 h at 4 °C, protein A–Sepharose; reducing and non-reducing SDS-PAGE; blot with anti-E1 mAb A4 and anti-E2 mAbs AP33 and ALP98; grades are the estimated amount relative to WT).

How did the binding turn out when “HCV E1 glycoprotein insertion mutant in253 (from UniProt P27958 192-383)” was run?
Its binding is “binds”.

“HCV E1 glycoprotein insertion mutant in324 (from UniProt P27958 192-383)” was tested. Which binding did it give?
Its binding is “binds”.

With “HCV E1 glycoprotein insertion mutant in263 (from UniProt P27958 192-383)” as the substance, how does the binding read?
The binding was “binds”.

How did the binding turn out when “HCV E1 glycoprotein insertion mutant in343 (from UniProt P27958 192-383)” was run?
The binding was “binds”.

With “HCV E1 glycoprotein insertion mutant in218 (from UniProt P27958 192-383)” as the substance, how does the binding read?
Its binding is “binds”.

With “HCV E1 glycoprotein insertion mutant in231 (from UniProt P27958 192-383)” as the substance, how does the binding read?
The binding was “binds”.

“HCV E1 glycoprotein insertion mutant in341 (from UniProt P27958 192-383)” was tested. Which binding did it give?
Its binding is “binds”.

How did the binding turn out when “HCV E1 glycoprotein insertion mutant in352 (from UniProt P27958 192-383)” was run?
Its binding is “binds”.
